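Results reflect a 48-hour exposure of cells in 96-well plates to compound at five concentrations. GI50: concentration for 50% inhibition of growth. TGI marks complete inhibition of growth.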
Test system: NCI-H322M lung
Experiment: NCI anticancer screen, dose series, 48 h

Compound: CCc1c2c(nc3ccc(OCc4ccc(B(O)O)cc4)cc13)-c1cc3c(c(=O)n1C2)COC(=O)[C@]3(O)CC
- GI50: 0.0992 µM
- TGI: > 24.6 µM

Compound: COc1cc2c(c3c1c(=O)c1ccccc1n3C)C=CC1(CCCC1)O2
- TGI: 27.7 µM

Compound: CCOC(=O)Cc1nc2ccc3c(c2[nH]c1=O)C(=O)c1ccccc1C3=O
- TGI: > 100 µM

Compound: CCn1nc(C)c2c1C(=O)NCC(=O)N2
- TGI: > 100 µM

Compound: O=S(=O)(/N=c1\scc(-c2ccccc2)n1-c1ccccc1)c1ccc(N2N=C3c4ccccc4CC3C2c2ccc(Cl)cc2)cc1 (stereo not given)
- GI50: 25.2 µM
- TGI: > 100 µM

Compound: COC1=NCc2ccccc2-c2ccccc21
- TGI: > 100 µM

Compound: C=CCSC1=N/C(=C\c2ccc(Cl)cc2)C(=O)N1CC=C
- TGI: > 100 µM

Compound: CN1N=CSC12C(=O)N(c1ccccc1)C(=O)N2c1ccccc1 (stereo not given)
- TGI: > 100 µM

Compound: CCN1C(=O)N(CC)C2C1NN=c1s/c(=C\c3ccc(Cl)cc3Cl)c(=O)n12 (stereo not given)
- GI50: 0.0633 µM
- TGI: > 100 µM

Compound: O=C(Nc1ccccc1F)c1cc2ccc(O)cc2oc1=Nc1cccc(F)c1
- TGI: 15.9 µM

Compound: Cc1ccc2c(c1)-c1nc(N)c(C#N)c(-c3ccc(Cl)cc3)c1CCS2(=O)=O
- TGI: 92.4 µM

Compound: C1=C(c2ccccc2)SC(N2CCCCC2)S1 (stereo not given)
- TGI: > 100 µM
